The campaign covered roughly 45,000 compounds. About 65 (0.1%) were called active. The call rests on the fitted dose curve; in most records, active means well fitted activation curve with a large enough effect; inconclusive means small, poorly fitted or top-dose-only effect; inactive means no such curve, though single readings can be large or run the other way. This is one part of the list.
molecular target: Galactocerebrosidase (Homo sapiens) (UniProt P54803); assay: A Novel Cell-Based Assay to Identify Small Molecules for B -Galactocerebrosidase; settings: 145M-Twi-hGALC-G270D cells (Twitcher mouse brain line with human GALC G270D), HMU-beta-Gal fluorescence, 48 h; series mostly up to 57.5 µM; activation: at the top concentration; further: 0% is about no effect; nearly all actives have a fitted effect of over 65% in size
Method in brief: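 Fluorescence readout: HMU-β-gal cleavage by mutant GALC (0.1 mM final, citrate/phosphate pH 5.2 with 1 mg/mL taurocholate), stopped with carbonate/bicarbonate plus Triton X-100. Cells: murine Twitcher 145M-Twi expressing human G270D GALC; qHTS for activators.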

UniProt P54803, sequence (P54803 whole entry, looked up): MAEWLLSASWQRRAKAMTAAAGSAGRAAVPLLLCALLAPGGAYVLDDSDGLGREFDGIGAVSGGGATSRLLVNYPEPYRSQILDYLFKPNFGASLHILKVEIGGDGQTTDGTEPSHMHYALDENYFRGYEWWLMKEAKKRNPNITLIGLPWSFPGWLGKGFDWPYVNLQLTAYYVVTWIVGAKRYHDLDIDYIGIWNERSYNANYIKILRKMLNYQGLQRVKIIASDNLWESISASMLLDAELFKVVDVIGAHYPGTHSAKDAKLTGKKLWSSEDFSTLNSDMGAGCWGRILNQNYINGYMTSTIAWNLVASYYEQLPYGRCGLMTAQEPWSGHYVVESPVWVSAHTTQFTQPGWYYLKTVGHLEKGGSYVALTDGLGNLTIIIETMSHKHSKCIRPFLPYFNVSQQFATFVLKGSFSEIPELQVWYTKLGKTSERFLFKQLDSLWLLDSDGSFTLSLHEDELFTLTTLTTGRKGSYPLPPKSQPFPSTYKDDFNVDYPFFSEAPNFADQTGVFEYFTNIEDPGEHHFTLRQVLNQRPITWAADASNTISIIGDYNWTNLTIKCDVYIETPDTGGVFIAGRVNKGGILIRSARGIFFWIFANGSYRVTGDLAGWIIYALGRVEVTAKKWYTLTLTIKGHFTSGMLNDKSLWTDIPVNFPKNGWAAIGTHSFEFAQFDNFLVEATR

activation, inactive:
O=C(OC1C[C@H]2CC[C@@H](C1)[N+]21CCCC1)C(O)(c1ccccc1)c1ccccc1 (stereo not given in full) -13.6%
CC(C)c1ccc(NC(=O)CC2Oc3ccccc3NC2=O)cc1 (stereo not given) 5.37%
Cc1cc(OCC(=O)N(Cc2ccc(N(C)C)cc2)C2CCS(=O)(=O)C2)cc(C)c1Cl (stereo not given) -3.89%
O=C(c1cccs1)c1cn(CCOc2ccccc2Cl)c2ccccc12 -20.8%
CCN(C(=O)C(Cc1ccccc1)NS(=O)(=O)c1cccc2nsnc12)c1ccccc1 (stereo not given) -26.5%
Cc1ccc(NC(=O)C(=O)NCC(c2ccc3c(c2)OCO3)N2CCN(c3ccccc3)CC2)cc1 (stereo not given) -9.85%
COCCCn1c(SCC(=O)Nc2ccccc2OC)nc2c(sc3ccccc32)c1=O 3.86%
Cc1ccc2nc(CN3CCN(C(=O)Nc4ccc(C)c(F)c4)CC3)oc2c1 -10.5%
COc1ccc(CCNC(=O)c2ccc(Cn3c(=O)c4ccccc4n(Cc4ccc(C)cc4)c3=O)cc2)cc1OC -8.51%
COc1ccc(NC(=O)CSc2nc(-c3ccc(F)cc3)c3cccc(C)c3n2)cc1 -11%
CCOc1ccc(CCNC(=O)c2ccc(-c3nc(COc4ccc(C)cc4)c(C)o3)cc2)cc1 1.03%
COc1cc(OC)c(NC(=O)Cc2ccc(-n3c(C)nc4cccnc43)cc2)cc1Cl -33.5%
O=C(Nc1ccc(F)cc1)[C@@H](c1ccccc1)N1Cc2ccccc2C1=O -9.62%
CCCCN(C)CCCNC(=O)c1cc(-c2cccnc2)nc2ccccc12 -6.61%
CCC1=Nc2cc(C(=O)NCc3ccc(C)cc3)ccc2Sc2ccc(C)cc21 -8.42%
CCOC(=O)C1CCCN(C(=O)Cn2ncn3c(cc4sc(CC)cc43)c2=O)C1 (stereo not given) -12.1%
COC(=O)c1ccc(OC)c(Cn2c(=O)n(-c3cccc(Cl)c3)c(=O)c3c4c(sc32)CN(C(C)=O)CC4)c1 -6.32%
COc1ccc(-c2oc3ncn4nc(COc5ccccc5C)nc4c3c2-c2ccc(OC)cc2)cc1 -17.1%
Cc1cccc(C)c1OCC(=O)Nc1c(C(=O)c2ccc(Br)cc2)oc2ccccc12 14.4%
COc1ccc2oc(=O)c(-c3cn4c(n3)sc3cc(F)ccc34)cc2c1 -16%
Cc1cccc(N2CCN(C(=O)C3CCN(S(=O)(=O)c4c(C)noc4C)CC3)CC2)c1C -17.9%
COc1ccc2c(CNCCc3cccs3)c(C(=O)O)n(Cc3ccccc3C)c2c1 -23.8%
O=C(CN1C(=O)COc2ccc(S(=O)(=O)N3CCCCCC3)cc21)N1CCN(c2cccc(C(F)(F)F)c2)CC1 -27.7%
COc1ccc(-c2noc(N3CCC(C(=O)N(C)c4cc(Cl)ccc4OC)CC3)n2)cc1 -2.85%
CCOc1cc2[nH]c(=O)n(CCCCC(=O)N3CCN(c4ccccc4)CC3)c(=O)c2cc1OCC -15.8%
CCC(C)NC(=O)c1[nH]c2cc(C)ccc2c1Sc1ccc(Cl)cc1 (stereo not given) -16.2%
COc1ccc(CCNC(=O)CCc2cn(Cc3ccc(C)cc3)c3ccccc23)c(OC)c1OC -2.89%
CCCCOc1ccc(S(=O)(=O)NCc2csc(-c3ccc(OC)cc3)n2)cc1 -9.67%
CCCn1c2ccccc2c2cnn(CC(=O)N(Cc3ccccc3)C(C)C)c(=O)c21 -0.635%
CCC(C(=O)Nc1cc(OC)ccc1OC)n1c(C)c2cnn(-c3ccccc3)c(=O)c2c1C (stereo not given) -9.25%
Cc1c(C(=O)N2CCCC2)oc2c1-c1nn(CC(=O)NC(C)c3ccccc3)cc1CC2 (stereo not given) 5.82%
Cc1ccc(S(=O)(=O)NCCc2nnc3ccc(SCc4ccc(F)cc4)nn23)cc1 4.71%
COc1ccc(-n2ccn(CC(=O)NCc3ccc(C)cc3)c(=O)c2=O)cc1OC -15.5%
Cc1cc(F)ccc1NC(=O)c1ccc2nc(Cc3ccccc3)oc2c1 -18.6%
COc1ccc(CC(=O)NCC(c2cccs2)S(=O)(=O)c2ccc(Cl)cc2)cc1 (stereo not given) -22.3%
CCN(CC)CC1CCCCN1CC(=O)N1c2ccccc2C(=O)Nc2cccnc21 (stereo not given) -17.6%
Cc1ccc(C)c(N2CCN(C(=O)c3cc(S(=O)(=O)N4CCC(C)CC4)cn3C)CC2)c1 1.43%
COc1ccccc1C(=O)c1cn(CC(=O)Nc2ccccc2F)c2nc(C)ccc2c1=O -6.57%
COc1ccccc1Cn1cc(C(=O)c2ccc(F)cc2)c(=O)c2cc3c(cc21)OCO3 -13.4%
Cc1ccc2oc(C(=O)Nc3cccc(-c4nc5ccccc5s4)c3)c(C)c2c1 -10.6%
Cc1ccc(Nc2ncc(C(=O)N3CCN(c4cccc(Cl)c4)CC3)c3ccccc23)cc1Cl -0.315%
CCN(Cc1ccccc1)S(=O)(=O)c1ccc(F)c(C(=O)Nc2cc(C(F)(F)F)ccc2Cl)c1 -11.4%
COc1ccc(N2C(=O)CSC23C(=O)N(CC(N)=O)c2ccccc23)cc1 (stereo not given) -27.7%
COC(=O)Cc1c(C)nc2nc(-c3ccc(C)cc3)[nH]n2c1=O -16.1%
CCOc1cccc2sc(NC(=O)CS(=O)(=O)c3ccc(C)cc3)nc12 -15.8%
COc1ccc(-n2c(=O)c3sc4ccccc4c3n(CC(=O)NC3CCCCC3)c2=O)cc1 -12.4%
CC(C)c1ccc(N2C(=O)N(Cc3ccccc3Cl)c3ccccc3S2(=O)=O)cc1 -11.4%
COCCNC(=O)CCCn1c(SCc2ccccc2Cl)nc2c(sc3ccccc32)c1=O -21.5%
COC(=O)c1c(-c2ccccc2)c(-c2ccccc2)nn(C)c1=O -16%
COc1ccc(-n2c(=O)c3c(c4cc(OC)ccc4n3C)n(CCC(C)C)c2=O)cc1 17.9%
COc1ccccc1C1CC(=O)N(c2cccc(C(F)(F)F)c2)C2=C1C(=O)OC2 (stereo not given) -4.08%
CCCCOc1ccc(C(=O)N(Cc2ccco2)Cc2ccco2)cc1 4.62%
COC(=O)c1ccc([C@H]2Nc3ccc(S(=O)(=O)Nc4cccc(C)c4)cc3[C@H]3C=CC[C@H]32)cc1 -12.7%
COc1ccccc1N1CCN(C(=O)c2cnc(N3CCOCC3)c3ccccc23)CC1 -0.494%
Cc1cc(CN2CCN(c3ccc(F)cc3)CC2)cs1 -4%
O=c1[nH]c(SCc2cccc(Cl)c2)nc2c1CCC2 -16.2%
CCN1CCSc2ccc(C(=O)NCc3ccccc3Br)cc21 -0.137%
CCC(=O)Nc1nnc2n1CCS2 -6.53%
Cc1cccc(N(CC(N)=O)C2SC(=O)N(Cc3cccc(C(=O)O)c3)C2=O)c1 (stereo not given) -2.59%
Cc1ccc(/C=N/n2c(-c3ccccc3)csc2=S)cc1 -7.84%

From PubChem BioAssay AID1159614 (National Center for Advancing Translational Sciences (NCATS), 2016)
